Assay results published in PMC4336329 (PLoS ONE, 2015).
Among all 310,000 compounds or so, about 14,000 (4.5%) showed an effect of 50% or more. The effect is printed as a negative number. This is one part of the list.

target: human ether-à-go-go-related gene (hERG) potassium channel (human, UniProt Q12809); test: primary screen, population patch clamp on CHO cells stably expressing hERG
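Further: peak tail current of the secondary pulse compared with the same well before compound.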

Sequence of human ether-à-go-go-related gene (hERG) potassium channel (Q12809 whole entry, looked up): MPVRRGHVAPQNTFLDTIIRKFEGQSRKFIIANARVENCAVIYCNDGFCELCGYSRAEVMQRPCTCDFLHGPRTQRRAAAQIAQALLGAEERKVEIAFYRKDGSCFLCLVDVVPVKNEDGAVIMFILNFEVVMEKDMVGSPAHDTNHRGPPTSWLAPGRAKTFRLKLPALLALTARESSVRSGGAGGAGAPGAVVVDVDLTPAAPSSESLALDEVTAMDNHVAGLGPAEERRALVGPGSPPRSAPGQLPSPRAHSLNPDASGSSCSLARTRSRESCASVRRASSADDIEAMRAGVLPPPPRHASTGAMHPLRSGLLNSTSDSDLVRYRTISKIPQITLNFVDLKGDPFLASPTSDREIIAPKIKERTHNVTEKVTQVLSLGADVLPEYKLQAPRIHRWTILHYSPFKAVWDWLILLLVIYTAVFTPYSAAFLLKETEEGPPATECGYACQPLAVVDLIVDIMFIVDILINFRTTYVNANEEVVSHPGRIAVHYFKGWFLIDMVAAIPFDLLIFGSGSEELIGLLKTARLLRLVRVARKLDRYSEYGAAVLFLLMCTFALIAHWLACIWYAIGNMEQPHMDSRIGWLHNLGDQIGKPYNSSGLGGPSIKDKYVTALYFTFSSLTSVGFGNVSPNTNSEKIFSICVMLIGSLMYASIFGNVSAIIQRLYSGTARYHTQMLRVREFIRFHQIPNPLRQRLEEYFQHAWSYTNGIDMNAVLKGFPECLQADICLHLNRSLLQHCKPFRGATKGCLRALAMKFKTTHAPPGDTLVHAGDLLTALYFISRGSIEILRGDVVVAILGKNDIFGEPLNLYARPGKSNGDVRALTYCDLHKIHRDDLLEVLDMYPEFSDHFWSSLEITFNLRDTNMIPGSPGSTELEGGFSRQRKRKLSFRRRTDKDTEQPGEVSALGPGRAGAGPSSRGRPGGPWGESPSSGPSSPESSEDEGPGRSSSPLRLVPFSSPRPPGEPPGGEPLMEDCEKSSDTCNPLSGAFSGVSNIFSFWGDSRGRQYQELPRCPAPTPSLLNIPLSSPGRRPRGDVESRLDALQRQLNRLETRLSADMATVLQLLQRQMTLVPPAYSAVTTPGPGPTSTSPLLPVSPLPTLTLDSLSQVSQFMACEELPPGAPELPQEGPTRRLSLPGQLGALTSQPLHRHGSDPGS

Compound | hERG current change (%, negative = inhibition) at 10uM [%]
O=C(NC(=S)Nc1ccc(N2CCN(C(=O)c3ccccc3)CC2)cc1)c1cccs1 | 9.96
COc1ccc(/C=C/C(=O)Nc2ccc(-n3nncc3-c3ccc(OC)c(OC)c3)cc2)cc1OC | -4.84
CSc1ccccc1NC(=O)CN(C)C(=O)CCc1c[nH]c2ccccc12 | 0.0989
N/C(=N\OC(=O)CCn1cccc(C(F)(F)F)c1=O)c1ccc(OC(F)(F)F)cc1 | -22.2
O=C(CCc1ccccc1)OCC(=O)c1cccc([N+](=O)[O-])c1 | 12.3
O=C(Nc1ccc(Cl)cc1)c1cc(S(=O)(=O)N2CCOCC2)cs1 | -51.2
C=Cn1cc[n+](CC(=O)c2ccc(Cl)cc2)c1.[Br-] | 12
CN(c1ccc(C(=O)N2CCN(Cc3ccccc3)CC2)cc1)S(=O)(=O)c1ccc(Cl)cc1 | -24.9
COc1ccc(C)cc1NC(=O)c1nnn(Cc2cccc(F)c2)c1N | 7.11
O=C(OCC(=O)N1CCCCCC1)c1cnc(Cl)c(Cl)c1 | -2.83
CCOc1ccc(C)cc1S(=O)(=O)n1nc(C)cc1C | -2.24
O=C(CNC(=O)CNC(=O)c1ccc(Cl)cc1Cl)NCc1cccc(Cl)c1 | -1.95
O=C(NCCN1CCOCC1)N1CCOCC1 | -12.4
Cl.O=C1C2C3C=CC(C4CC34)C2C(=O)N1CCCCN1CCN(c2ccc(F)cc2)CC1 (stereo not shown) | -69.3
Cc1ccc(C(O)(C(=O)NNC(=O)CN2CCN(C)CC2)c2ccc(C)cc2)cc1 | 8.88
Cl.NC1=NC2(CCCCC2)N(c2cccc(Cl)c2)C(N)=N1 | 27.9
O=C(NN=c1c(=O)c2ccccc2c1=O)c1ccccc1 | -23.4
CC(C)[C@H](NC(=O)[C@@H]1CSC2c3ccccc3C(=O)N21)C(=O)NC1CCCC1 (stereo partly shown) | 7.68
CCc1ccc2c(c1)C(O)(CC(=O)c1cccs1)C(=O)N2 (stereo not shown) | 7.54
CCc1nnc(NC(=O)C(C)C)s1 | -0.304
COc1cc2nc(N3CCN(C(=O)c4ccco4)CC3)nc(N)c2cc1OC.Cl.O | -28.2
COC(=O)c1cc(OC)c(OC)cc1NCC(=O)Nc1ccc(C)cc1 | -7.1
Cc1ccc(NC(=O)CCNC(=O)c2ccccc2Cl)cc1S(=O)(=O)N1CCCCCC1 | -6.13
COc1c(/C=N/Nc2ccc([N+](=O)[O-])cc2[N+](=O)[O-])c(C)nn1-c1ccccc1 | 1
O=C(COC(=O)C1(c2ccc(Cl)cc2)CCCC1)NC1CCS(=O)(=O)C1 (stereo not shown) | -29.1
C[N+]1(C)C2CCC1CC(OC(=O)c1ccco1)C2.[Br-] (stereo not shown) | 7.81
COc1ccccc1OCc1nc2ccccc2n1C | 3.46
CCCn1c(SCC(=O)Nc2ccc(OCC)cc2)nnc1C(C)C | -9.81

Compound | hERG current change (%, negative = inhibition) at 10uM [%]
CC(=O)Nc1ccc(S(=O)(=O)N2CCCC2C(=O)Nc2ccc(F)cc2)cc1 (stereo not shown) | 11.2
Cc1cccc(NC(=S)NNC(=O)CCn2cc(C)cn2)c1 | 5.5
CC1CCCN(Cc2c(O)ccc3c(=O)c(-c4nc5ccccc5s4)c(N)oc23)C1 (stereo not shown) | -0.886
O=C(Cn1cnc2ccccc2c1=O)NCCCN1CCCC1=O | -5.14
CC1CN=C(NC(=O)c2cccc([N+](=O)[O-])c2)S1.Cl (stereo not shown) | 4.64
Cc1ccc(C)c(NC(=O)C2CCN(S(=O)(=O)c3ccc4c(c3)NC(=O)CO4)CC2)c1 | -6.02
Cc1ccc(CC(=O)N2CCN(c3ccccn3)CC2)cc1 | -1.99
CC(=O)Nc1sc2c(c1C(c1ccc(Cl)cc1)N1CCOCC1)CCCC2 (stereo not shown) | -3.98
CN1CCN(S(=O)(=O)c2cccc(C(=O)Nc3cccc([N+](=O)[O-])c3)c2)CC1 | -15.6
COc1cc(/C=C/C(=O)OCC(=O)NCCC2=CCCCC2)ccc1O | 4.58
Cc1ccccc1N(CC(=O)NCc1ccco1)C(=O)CNS(=O)(=O)c1ccc(F)cc1 | -16
COc1ccc(CNn2c(-c3cccs3)nc3ccccc3c2=O)cc1OC | -4.52
CCN1CCN(c2cc3nc(C)n(Cc4ccccc4)c(=O)c3cc2NC(=O)c2ccccc2F)CC1 | -4.27
O=[N+]([O-])c1cccc(-c2ccc(/C=N/NC(=S)Nc3cccc(F)c3)o2)c1 | 10.6
COc1ccc2cc(C(C)=O)c(=O)oc2c1 | -11.4
Cc1csc(SCC(=O)Nc2oc(C)c3c(C)n[nH]c(=O)c23)n1 | -7.82
O=[N+]([O-])c1ccc(C2=CSC3=NCCN23)cc1 | -32.9
O=C(c1ccc(-c2ccccc2)cc1)N1CCCC1 | 7.81
COc1cc(OC)c(NC(=O)Cn2cccc2)cc1Cl | 5.76
CC(NCC(=O)Nc1cc(S(=O)(=O)N2CCOCC2)ccc1N1CCOCC1)c1ccco1 (stereo not shown) | -27.7
Cc1ccc(NC(=O)C2CC(=O)n3c(nc4ccccc43)N2)cc1 (stereo not shown) | 8.39
Cc1cc(C(=O)OCC(=O)Nc2ncc(C(F)(F)F)cc2Cl)c(C)o1 | 0.866
CCOC(=O)C1=C(CS(=O)(=O)c2ccccc2)NC(=O)NC1c1cc(OC)c(O)c(OC)c1 (stereo not shown) | 15.6
COc1cccc(CC(=O)OCC(=O)N(C)CC(=O)Nc2ccc(F)cc2)c1 | -9.44
CCN(CC)c1ccc(C2C(C(=O)OC)=C(C)NC(C)=C2C(=O)OC)cc1 | -4.04
CC(=O)Nc1ccc(-c2cn3ccsc3n2)cc1 | 6.9
O=C(Nc1ccc(F)cc1)C1CCN(S(=O)(=O)c2cccc3nonc23)CC1 | 2.91
